Experimental data taken from publication PMC4336329 (PLoS ONE, 2015).
Out of some 310,000 compounds screened, about 2,200 (0.71%) showed an effect of 50% or more. Effects have a minus sign here. This is one part of the list.

These molecules were tested against human ether-à-go-go-related gene (hERG) potassium channel (human, UniProt Q12809) (assay: primary screen, population patch clamp on CHO cells stably expressing hERG).
Chain of human ether-à-go-go-related gene (hERG) potassium channel (Q12809 whole entry, looked up): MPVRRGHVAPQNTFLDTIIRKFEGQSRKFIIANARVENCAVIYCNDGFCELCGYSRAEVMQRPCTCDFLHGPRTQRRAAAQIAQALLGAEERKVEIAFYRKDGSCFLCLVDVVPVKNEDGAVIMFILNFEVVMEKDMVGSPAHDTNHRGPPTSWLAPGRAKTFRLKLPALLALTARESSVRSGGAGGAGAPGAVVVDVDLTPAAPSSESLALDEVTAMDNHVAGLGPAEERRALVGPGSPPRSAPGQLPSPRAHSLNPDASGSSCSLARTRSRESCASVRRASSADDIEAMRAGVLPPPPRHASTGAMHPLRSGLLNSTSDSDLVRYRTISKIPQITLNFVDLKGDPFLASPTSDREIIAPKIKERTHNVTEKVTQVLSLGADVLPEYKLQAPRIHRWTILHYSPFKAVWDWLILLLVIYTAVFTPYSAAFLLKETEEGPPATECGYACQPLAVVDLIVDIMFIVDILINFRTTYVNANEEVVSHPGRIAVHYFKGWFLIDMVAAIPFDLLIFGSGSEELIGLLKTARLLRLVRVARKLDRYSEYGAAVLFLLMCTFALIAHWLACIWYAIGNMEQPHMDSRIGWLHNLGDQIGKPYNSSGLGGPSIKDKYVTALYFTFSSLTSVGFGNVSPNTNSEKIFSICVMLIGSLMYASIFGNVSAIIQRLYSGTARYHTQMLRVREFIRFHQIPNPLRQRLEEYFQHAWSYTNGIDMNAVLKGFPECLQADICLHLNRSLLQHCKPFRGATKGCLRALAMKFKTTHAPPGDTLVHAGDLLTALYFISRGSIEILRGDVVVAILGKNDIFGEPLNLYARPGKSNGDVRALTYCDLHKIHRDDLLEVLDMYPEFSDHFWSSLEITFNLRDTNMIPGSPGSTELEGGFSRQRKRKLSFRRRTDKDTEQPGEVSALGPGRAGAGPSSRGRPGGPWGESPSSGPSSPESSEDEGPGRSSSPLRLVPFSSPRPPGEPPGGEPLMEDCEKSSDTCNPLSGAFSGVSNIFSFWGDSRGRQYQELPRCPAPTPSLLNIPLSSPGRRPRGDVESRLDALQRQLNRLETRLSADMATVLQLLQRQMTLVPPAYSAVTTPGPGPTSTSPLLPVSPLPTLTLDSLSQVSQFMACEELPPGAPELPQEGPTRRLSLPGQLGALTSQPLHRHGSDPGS

Row | Structure (SMILES) | hERG current change (%, negative = inhibition) at 1uM
1 | CCOC(=O)C1CCN(S(=O)(=O)CCNC(=O)c2ccc(F)cc2)CC1 | -4.36%
2 | O=c1[nH]c(CN2CC=C(c3ccccc3)CC2)nc2scc(-c3cccs3)c12 | 14.1%
3 | CC(=O)N1N=C2C3CCN(CC3)C2C1c1ccc(C)cc1 (centres unmarked) | 19.7%
4 | O=C1CC(N2CCN(c3ccc(O)cc3)CC2)C(=O)N1c1ccc2c(c1)OCO2 (centres unmarked) | 10.5%
5 | O=C(CCSc1ccccc1)Nc1ccc(S(=O)(=O)Nc2ncccn2)cc1 | 8.35%
6 | O=C(Cc1cc(=O)[nH][nH]1)N/N=C/C(Cl)=C/c1ccccc1 | 10.1%
7 | Cc1ccc(NC(=S)N2CCC(NC(=O)c3ccc(C)cc3)CC2)cc1 | 8.19%
8 | C/C(=N/NC(=O)CNC(=O)c1cccc(F)c1)c1ccc2c(c1)CCCC2 | 15.9%
9 | CCOC(=O)c1c(C=O)c(C)n(Cc2ccc(Cl)cc2)c1C | 5.11%
10 | Cl.O=C(Nc1ncccc1Cl)c1cccc(F)c1 | 8.62%
11 | Cc1ccc(O)c(NC(=S)NC(=O)/C=C/c2ccco2)c1 | 12.8%
12 | COc1cccc(Nc2nc(-c3ccc(O)cc3)cs2)c1 | 14.2%
13 | COc1ccc(C2C(C#N)=C(N)Oc3c2c(=O)oc2ccccc32)cc1Cn1cc([N+](=O)[O-])cn1 (centres unmarked) | 5.66%
14 | Cc1cc(NC(=O)NC(=O)c2ccccc2)no1 | 15.5%
15 | CC(NC(=O)C(Cc1ccccc1)n1cccc1)c1ccccc1 (centres unmarked) | 12.9%
16 | CC1CCN(S(=O)(=O)c2ccc3[nH]c(=O)ccc3c2)CC1 | 2.18%
17 | CCCCn1c(N)c(N(CC)C(=O)c2cc3c(s2)CCCCC3)c(=O)[nH]c1=O | 2.51%
18 | O=C(Nc1ccccn1)c1ccc2c(c1)OCO2 | 10.7%
19 | CN(C)C(=O)N1CCCC(C(=O)NCCc2ccccc2)C1 (centres unmarked) | 7.4%
20 | O=C1NCCN(Cc2ccc(-c3ccccc3)cc2)C1CC(=O)N1CCN(CCO)CC1 (centres unmarked) | 14.8%
21 | O=C(Nc1ccc(OC(F)(F)F)cc1)C1CC(=O)N(Cc2ccco2)C1 (centres unmarked) | 7.93%
22 | Cc1ccc(NC(=O)CCNS(=O)(=O)c2cc(Br)cnc2N)cc1Cl | 3.12%

Row | Structure (SMILES) | hERG current change (%, negative = inhibition) at 1uM
23 | COc1ccc(CN(C)CC(=O)Nc2c(C)cccc2C)c(OC)c1 | 14.3%
24 | CN(C)c1ncc(S(=O)(=O)c2ccccc2)c(N)n1 | 6.11%
25 | O=S(=O)(NC1CCCCC1)c1ccc(S(=O)(=O)N2CCN3CCCC3C2)cc1 (centres unmarked) | 7.24%
26 | CC1CCN(CCNC(=O)C2CCCN(S(=O)(=O)c3cccc4nonc34)C2)CC1 (centres unmarked) | -0.543%
27 | CCc1nnc(NS(=O)(=O)c2ccc(NC(=S)NC(=O)/C=C/c3ccccc3)cc2)s1 | 6.09%
28 | COc1ccccc1N(Cc1ccccc1)S(=O)(=O)c1cccc(C(=O)Nc2ccccn2)c1 | 2.77%
29 | CCN(CC(=O)Nc1ccccc1C(F)(F)F)C(=O)CCSc1ccc(F)cc1 | 7.38%
30 | Cc1ccc(NC(=O)Cc2nnc(N)s2)cc1 | 6.91%
31 | Cc1cc(O)c2c(-c3ccccc3)cc(=O)oc2c1 | -3.72%
32 | N#CC(C#N)=Cc1c(N2CCN(c3ccccc3)CC2)nc2ccccn2c1=O | 10.6%
33 | Cc1ccc(N2C(=O)c3cccc4c(N)ccc(c34)C2=O)c2cccnc12 | 13.3%
34 | O=C(CSc1nnc(-c2ccc3c(c2)OCCO3)o1)NC1CCCCC1 | 5.96%
35 | O=C(NCCc1nc2ccc(Cl)cc2[nH]1)C1CCC(=O)N(Cc2cccc(F)c2)C1 (centres unmarked) | 5.73%
36 | O=S(=O)(Nc1cccc(C(F)(F)F)c1)c1cnc[nH]1 | 17.2%
37 | O=C(Nc1ccc2c(c1)OCO2)NC1CCN(Cc2ccccc2)CC1 | -4.05%
38 | COc1ccc(CCNC(=O)C2CCCN2C(=O)NC2CCCCC2)cc1OC (centres unmarked) | 20%
39 | CCCCCCN=CC1=C(O)CC(C)(C)CC1=O | 13.8%
40 | CC1(C)CC(=O)c2cc(C(=O)N3CCCC(C)(C)C3)c(=O)n(-c3ccccc3)c2C1 | 5.98%
41 | CCOC(=O)c1ccc(NC(=O)CN2C(=O)C(C)SC(C)C2=O)cc1 (centres unmarked) | 7.28%
42 | Cc1nc(SCC(=O)NC(=O)NC(C)(C)C)nc(C)c1C | 8.07%
43 | CON(C)c1nc(OCCNC(=O)OCc2ccc(Cl)cc2C)nc(N(C)C)n1 | -0.494%
44 | COc1cc2c(cc1OC)C(C(=O)NCCN1CCOCC1)C1c3ccccc3CCN1C2=O (centres unmarked) | -0.202%
